Experimental data as given in the supplement of paper PMC7826260.
The list shows a part of the results. The data describe in vitro nicking of single-stranded DNA by Rep domains for 1 h at 37 °C with 3 µM enzyme; only the middle of the 90-letter strands is printed. A value is the log2 ratio of uncut reads to the pool without enzyme; strong cutting gives strongly negative numbers. There is no active / inactive call. Reads are scaled to the total; values above 0 arise when much of the pool is cut.

Test system: T1, Rep nickase domain of cabbage leaf curl virus
T1 sequence (residues 1-116, tag not shown): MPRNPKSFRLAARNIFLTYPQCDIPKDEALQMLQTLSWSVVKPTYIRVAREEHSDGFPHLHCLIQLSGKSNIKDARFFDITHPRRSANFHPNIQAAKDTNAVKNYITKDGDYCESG
Experiment: uncleaved DNA left, log2 of reads against the no-enzyme library (log2 ratio); higher = less cleavage (more negative = more Rep cleavage of the k-mer); sequences stand for … in CTCGTCCG…ACCGGAGA
Method: (§1)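 A pool of 90-nt single-stranded DNAs with seven random bases just before the constant AC of the nick site (name = the seven bases) was cut by 3 µM recombinant His6-SUMO-tagged Rep nickase domain (300 nM DNA, 50 mM HEPES pH 8.0, 50 mM NaCl, 1 mM MnCl2, 1 h, 37 °C, three replicates). Uncut DNA was amplified and sequenced.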

Sequence | uncleaved DNA left (log2)
TGATTAT | 0.272
CAGCTCA | -0.148
TGCTCCG | -0.785
TAACCAT | -2.82
GCCATAC | -0.0985
TCCATTG | -0.549
GGTAAGG | 0.563
CATCATA | -0.0725
TCCCGAA | 0.134
AATGCCT | -0.274
AGCGCTT | 0.086
AGAGAGT | 0.0651
AAAATTA | -0.194
GTCATCA | 0.308
GATAAAT | 0.386
GACGGGT | 0.392
CCGTGCC | -0.0989
GATTGCG | 0.489
ACCGGAG | -0.23
TGTCGCA | -0.126

Test system: T2, Rep nickase domain of chickpea chlorotic dwarf virus
T2 sequence (residues 1-124, tag not shown): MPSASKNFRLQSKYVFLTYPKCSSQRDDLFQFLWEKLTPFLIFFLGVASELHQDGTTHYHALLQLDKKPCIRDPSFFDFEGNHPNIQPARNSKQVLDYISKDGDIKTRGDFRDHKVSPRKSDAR
Experiment: as above
Method: as §1

Sequence | uncleaved DNA left (log2)
TTTCCCG | -0.312
AGAATGA | 0.549
CTCAGAA | -0.0384
TGCGCCG | -0.61
TCTCATA | -0.925
ATCTGGC | -0.125
GTCGCTA | 0.683
ACAGCCA | -1.25
GTGGTGT | 0.95
CTTGTTC | -1.13
GTATCTG | 0.552
GCAGGGT | 1.24
CTCCTCG | -0.0813
GCAGGAC | 1.69
TACACGT | -1.84
GTCGACA | 1.05
TGATTGT | -0.308
GCTAACC | -0.282
AAAATTG | -0.693
TAATTAG | -1.25

Sequence | uncleaved DNA left (log2)
TGATTAT | -0.443
CAGCTCA | -2.2
TGCTCCG | -0.517
TAACCAT | -3.16
GCCATAC | -0.00458
TCCATTG | -0.533
GGTAAGG | 1.26
CATCATA | -2.09
TCCCGAA | -0.026
AATGCCT | -1.49
AGCGCTT | 0.458
AGAGAGT | 0.473
AAAATTA | -2.39
GTCATCA | 0.915
GATAAAT | 0.608
GACGGGT | 0.738
CCGTGCC | -0.318
GATTGCG | 1.2
ACCGGAG | 0.43
TGTCGCA | -0.686

Test system: T3, Rep nickase domain of faba bean necrotic yellows virus
T3 sequence (residues 1-98, tag not shown): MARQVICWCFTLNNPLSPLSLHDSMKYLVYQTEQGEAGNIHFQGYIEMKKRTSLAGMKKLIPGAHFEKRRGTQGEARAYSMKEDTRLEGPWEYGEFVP
Experiment: as above
Method: as §1

Sequence | uncleaved DNA left (log2)
TTTCCCG | 0.0253
AGAATGA | 0.053
CTCAGAA | -0.0789
TGCGCCG | -0.0843
TCTCATA | -0.0777
ATCTGGC | 0.0501
GTCGCTA | -0.0164
ACAGCCA | -0.105
GTGGTGT | 0.0921
CTTGTTC | -0.164
GTATCTG | 0.0116
GCAGGGT | -0.00743
CTCCTCG | 0.0319
GCAGGAC | 0.0146
TACACGT | -0.11
GTCGACA | -0.0525
TGATTGT | 0.125
GCTAACC | -0.081
AAAATTG | -0.0475
TAATTAG | 0.202

Sequence | uncleaved DNA left (log2)
TGATTAT | 0.115
CAGCTCA | 0.0804
TGCTCCG | -0.0272
TAACCAT | -0.0196
GCCATAC | -0.103
TCCATTG | 0.0699
GGTAAGG | 0.145
CATCATA | -0.0481
TCCCGAA | -0.271
AATGCCT | -0.0676
AGCGCTT | -0.0346
AGAGAGT | -0.128
AAAATTA | 0.0836
GTCATCA | -0.0104
GATAAAT | 0.0111
GACGGGT | 0.101
CCGTGCC | 0.084
GATTGCG | -0.0553
ACCGGAG | -0.0477
TGTCGCA | -0.025
